# Measurements reported in the antibiotic and cytotoxicity screens of Wong et al. (2023).
# The other results are listed elsewhere or left out.
# System: HSkMC (human skeletal muscle cells)
# Experiment: cytotoxicity call (relative viability < 0.9)
# Settings: 10 µM
row,Compound,cytotoxicity call
1,CCCC(=O)Nc1ccc2c(c1)C(=O)N(C)C[C@H](OC)[C@@H](C)CN(Cc1ccc(-c3ccccn3)cc1)[C@@H](C)CO2,inactive
2,Cc1noc(C)c1S(=O)(=O)Nc1cccc2c1O[C@H](CN(C)Cc1ccc3c(c1)OCO3)[C@H](C)CN([C@H](C)CO)C2=O,inactive
3,CC(=O)Nc1nnc(S(N)(=O)=O)s1,inactive
4,C[C@@H]1CN([C@@H](C)CO)C(=O)Cc2cc(NS(=O)(=O)c3cn(C)cn3)ccc2O[C@H]1CN(C)Cc1ccncc1,inactive
5,C[C@@H]1CCCCO[C@H](CN(C)Cc2ccc(C(F)(F)F)cc2)[C@@H](C)CN([C@H](C)CO)C(=O)c2cc(NC(=O)Nc3ccc(F)cc3)ccc2O1,inactive
6,O=c1cc(-c2ccccc2)sc2c1ccc1ccccc12,inactive
7,Cc1cc(C)c2ccc(Cl)nc2n1,inactive
8,COc1ccc(CN(C)C[C@H]2OCCCC[C@H](C)Oc3ccc(NC(=O)Nc4c(C)noc4C)cc3C(=O)N([C@H](C)CO)C[C@@H]2C)cc1,inactive
9,C[C@@H]1CN([C@@H](C)CO)C(=O)c2cc(NS(C)(=O)=O)ccc2O[C@H]1CN(C)S(=O)(=O)c1ccc(F)cc1,inactive
10,O=C(C[C@H]1CC[C@@H]2[C@H](COC[C@H](O)CN2C(=O)Nc2ccc(Cl)c(Cl)c2)O1)NCc1ccc(Cl)c(Cl)c1,inactive
11,COc1ccc(NC(=O)N(C)C[C@@H]2OCCCC[C@H](C)Oc3ccc(NC(=O)Nc4cccc5ccccc45)cc3C(=O)N([C@H](C)CO)C[C@@H]2C)cc1,inactive
12,C[C@@H]1CN(CCO)C(=O)c2cc(NC(=O)Nc3ccccc3)ccc2O[C@@H](C)CCCCO[C@H]1CN(C)S(=O)(=O)c1ccc(F)cc1,inactive
13,COc1ccc(S(=O)(=O)N2C[C@H](O)COC[C@H]3O[C@@H](CC(=O)NCc4ccc(Cl)c(Cl)c4)CC[C@@H]32)cc1,inactive
14,C=CCOC(=O)[C@H]1[C@@H]2C(=O)O[C@@H](c3ccccc3)[C@@H](c3ccccc3)N2[C@@H](c2ccc(OCCOC(=O)[C@@H]3C[C@@H]4C(=O)N[C@@H](CCCCNC(C)=O)C(=O)N4[C@@H]3c3cccc(OCCO)c3)cc2)[C@]12C(=O)Nc1ccc(I)cc12,inactive
15,COc1ccc2c3c(n(c2c1)C)[C@@H](CO)N(CC1CCOCC1)C[C@]13CN(C1)C(=O)c1cccc(c1)F,inactive
16,C[C@@H]1CN([C@H](C)CO)C(=O)c2c(c3ccccc3n2C)-c2ccccc2CO[C@H]1CN(C)S(=O)(=O)c1cn(C)cn1,inactive
17,O=C(C[C@@H]1C=C[C@H](NC(=O)c2cccnc2)[C@H](CO)O1)NCCN1CCCCC1,inactive
18,C[C@H](CO)N1C[C@H](C)[C@H](CN(C)Cc2ccc(C(=O)O)cc2)Oc2c(NS(=O)(=O)c3cn(C)cn3)cccc2C1=O,inactive
19,C[C@@H]1CN([C@H](C)CO)C(=O)Cc2cc(NS(=O)(=O)c3cccs3)ccc2O[C@@H]1CN(C)CC1CC1,inactive
20,CN(C)CCCNC(=O)C[C@@H]1CC[C@@H]2[C@H](COc3ccc(NS(C)(=O)=O)cc3C(=O)N2C)O1,inactive
21,C[C@@H]1C(=O)O[C@H]2[C@H](O)[C@@]34[C@H]5C[C@@H](C(C)(C)C)[C@]36[C@@H](OC(=O)[C@@H]6O)O[C@@]4(C(=O)O5)[C@@]12O,inactive
22,O=C(C[C@@H]1CC[C@H]2[C@@H](COC[C@@H](O)CN2S(=O)(=O)c2ccc(F)cc2)O1)N1CCc2ccccc2C1,inactive
23,COc1ccc([C@@H]([C@H](Cc2ccccc2)OC(C)=O)N2Cc3c(noc3[C@@H](O)c3ccccc3)[C@@H]2Cc2ccccc2)cc1,inactive
24,Cc1noc(C)c1S(=O)(=O)N(C)C[C@H]1OCc2cn(nn2)CCCC(=O)N([C@H](C)CO)C[C@@H]1C,inactive
25,C[C@@H]1CN([C@H](C)CO)S(=O)(=O)c2ccc(C#C[C@@H](C)O)cc2O[C@H]1CN(C)C(=O)CN(C)C,inactive
26,CCCC(=O)Nc1ccc2c(c1)C(=O)N(C)[C@H]1CC[C@@H](CC(=O)NCCN3CCCCC3)O[C@@H]1CO2,inactive
27,C[C@@H]1CN([C@@H](C)CO)C(=O)c2cc(NC(=O)Cc3ccccc3)ccc2O[C@@H](C)CCCCO[C@H]1CN(C)C(=O)C1CCCCC1,inactive

# System: HepG2
# Experiment: cytotoxicity call (relative viability < 0.9)
# Settings: 10 µM
row,Compound,cytotoxicity call
1,C[C@@H]1CCCCO[C@@H](CN(C)CC2CCCCC2)[C@@H](C)CN([C@@H](C)CO)C(=O)c2cc(NC(=O)c3ccccc3)ccc2O1,inactive
2,O=C(C1=C[C@@H](c2csc3ccccc23)C[C@@H](OCc2ccc(CO)cc2)O1)N1CCN(Cc2ccccc2)CC1,inactive
3,C[C@]12C(=O)N(CCCCCO)[C@@H]3C(=O)N(c4ccc(Cl)cc4)CC=C[C@]31O[C@@H]1/C=C\CCCOC(=O)[C@H]12,inactive
4,O=C(O)c1ccco1,inactive
5,COc1ccc(NC(=O)Nc2ccc3c(c2)C(=O)N([C@@H](C)CO)C[C@@H](C)[C@H](CN(C)S(=O)(=O)c2ccc(Cl)cc2)OCCCC[C@@H](C)O3)cc1,inactive
